Assay results as given in paper PMC12276331, “Nanomechanical binding mechanism of ligands drives agonistic activity” (Nature Communications, 2025).

Molecular target: T1, Active trimeric human CD40 ligand (hCD40L/hCD154; residues 116G-261L) with N-terminal His6-tag (CDL-H5248) (human, UniProt P29965 116-261)
T1 construct: CD40 ligand (CD154), human, residues 116G-261L; Used for SMFS (coupled to the tip by its His6-tag through tris-NTA/Ni) and for HS-AFM; also called trimeric hCD40L; source: bought: AcroBiosystems, USA (CDL-H5248); not shown: His6, N-terminal, kept
T1 sequence (looked up): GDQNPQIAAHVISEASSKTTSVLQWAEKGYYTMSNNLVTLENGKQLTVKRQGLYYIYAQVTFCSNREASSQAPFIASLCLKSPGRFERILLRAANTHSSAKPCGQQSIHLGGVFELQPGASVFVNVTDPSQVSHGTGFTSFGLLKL
Assay: high-speed AFM imaging (HS-AFM); 10 nM hCD40L and 10 nM extracellular hCD40 pre-mixed 1:3, on Ni-treated mica; HEPES buffer pH 7.4; hCD40L adsorbed on mica, hCD40 tracked over time; clusters after 45 min incubation
Conditions: both partners purified

B1: Extracellular human CD40 (residues 20P-190D) with C-terminal His6-tag (domain or fragment)
chain: not shown
notes: CD40, human, extracellular part, residues 20P-190D; Seen by HS-AFM as monomers, dimers and higher-order oligomers; also called soluble hCD40; extracellular hCD40; source: Pfizer Inc., USA (provided); not shown: His6, C-terminal, kept
  stoichiometry N: ≤ 2 hCD40 per hCD40L trimer
